In PubChem BioAssay AID588591 (National Center for Advancing Translational Sciences (NCATS), 2011):
In all, about 390,000 compounds went through this assay and about 4,700 (1.2%) were called active. Not shown: some 4% with an inconclusive outcome. Calls come from the whole dose curve; as a rule, active = well fitted inhibition curve with a large enough effect; inconclusive = small, poorly fitted or top-dose-only effect, or another doubt; inactive = no such curve, though single readings can be large or run the other way. Only a part is listed here, and it is no random draw.

Biological target: DNA polymerase eta (Homo sapiens) (UniProt Q9Y253)
Assay: qHTS for Inhibitors of Polymerase Eta
Settings: recombinant Pol eta, fluorescent DNA replication assay; series mostly up to 114 µM; activity change, negative = inhibition: at the top concentration
Summary of the method: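 Pol eta at 10 nM preincubated with compounds 15 min at room temperature; reaction started with fluorescent substrate (50 nM final) and read kinetically at 0 and 10 min.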
% is set by controls: 0 for no effect and ±100 for the full control effect; potency is the fitted concentration of half-maximal effect.

UniProt Q9Y253, sequence (Q9Y253 whole entry, looked up): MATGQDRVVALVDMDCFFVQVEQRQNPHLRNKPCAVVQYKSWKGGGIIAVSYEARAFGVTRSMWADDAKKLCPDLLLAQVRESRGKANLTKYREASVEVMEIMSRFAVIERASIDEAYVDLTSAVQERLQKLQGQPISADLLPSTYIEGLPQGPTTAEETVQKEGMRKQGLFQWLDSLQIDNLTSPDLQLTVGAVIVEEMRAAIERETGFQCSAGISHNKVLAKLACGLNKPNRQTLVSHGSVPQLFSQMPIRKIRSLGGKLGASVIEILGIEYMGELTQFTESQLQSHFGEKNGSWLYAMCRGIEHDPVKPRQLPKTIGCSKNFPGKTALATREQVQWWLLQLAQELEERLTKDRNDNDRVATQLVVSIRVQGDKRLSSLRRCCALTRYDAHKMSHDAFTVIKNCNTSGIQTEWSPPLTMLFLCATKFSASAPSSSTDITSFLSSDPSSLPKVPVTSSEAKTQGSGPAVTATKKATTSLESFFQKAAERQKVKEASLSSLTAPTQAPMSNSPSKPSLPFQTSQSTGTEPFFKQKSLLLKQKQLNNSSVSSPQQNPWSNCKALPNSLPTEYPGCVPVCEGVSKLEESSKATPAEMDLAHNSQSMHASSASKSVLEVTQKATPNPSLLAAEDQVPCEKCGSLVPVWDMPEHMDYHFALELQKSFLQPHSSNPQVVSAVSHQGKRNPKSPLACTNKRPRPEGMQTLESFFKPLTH

Activity change, negative = inhibition, inactive:
CCCN(CC(=O)Nc1ccccc1C)C(=O)c1ccc(S(=O)(=O)N2CCCC2)cc1 -2.17%
COc1ccc(CC(=O)N/N=C/C=C/c2ccc3c(c2)OCO3)cc1OC 30.4%
Oc1ccc(-c2nc(-c3ccc(F)cc3)c(-c3ccncc3)[nH]2)cc1 -19.8%
OCC[C@@H]1C[C@H](O)[C@@H](O)[C@]2(CCCc3ccccc3O2)O1 7.59%
COc1ccc2ccc3c(c2c1)N=CC1(O3)N(C)c2ccccc2C1(C)C (centres undefined) -17.5%
Cc1ccc(N(CC(=O)N2CCN(c3ccc(F)cc3)CC2)S(=O)(=O)c2c(C)noc2C)cc1 -21.9%
CC(=O)C[C@H](O)CC(=O)[C@@H]1OC(=O)[C@H](C)C/C=C\Cc2ccccc21 -8%
CCCCN(CC)CCNC(=O)CCC(=O)Nc1ccc2nc(N3CCN(C)CC3)cc(C)c2c1 36.9%
Cc1cc(C(=O)N/N=C/c2ccc([N+](=O)[O-])cc2)c2ccccc2n1 27.4%
Cc1cccc(NC(=O)COC(=O)CNC(=O)C2CCCCC2)c1 4.91%
COc1ccc(-c2ccc3c(N)c(C(=O)c4ccc(OC)c(OC)c4)sc3n2)cc1 -18.8%
CCOc1ccc(NC(=O)C2CCC(CNc3c(N4CCCCC4)c(=O)c3=O)CC2)cc1 (centres undefined) 32.9%
CN(C)Cc1cccc([N+](=O)[O-])c1O 31%
C=CC[C@@H](CC(=O)N(CCO)Cc1ccccc1)C(=O)N[C@H](COC(=O)[C@@H](CC=C)CC(=O)OC(C)(C)C)Cc1c[nH]c2ccccc12 -29.7%
COc1ccc(NC(=O)/C(=C\c2ccc3c(c2)OCO3)NC(C)=O)cc1 7.38%
Cc1ccc(C)c(NC(=O)Cn2nnc(-c3ccc(N4CCOCC4)cc3)n2)c1 15.5%
COc1cc(OC)cc(C(=O)NC(C(=O)OCn2nnc3ccccc3c2=O)C(C)C)c1 (centres undefined) -15.1%
Cc1ccc2c(Cl)cc(Cl)c(OCC(=O)NC(C)(C)C)c2n1 31.7%
CCCCc1nn2c(=O)cc(COC(=O)c3ccc(NC(=O)C4CCCCC4)cc3)nc2s1 19.4%
O=C(Nc1ccc(Br)cn1)c1cccc2c1-c1ccccc1C2=O 26.7%
Cc1ccc(NC(=O)C(=O)NCC2CCCO2)cc1C (centres undefined) 32.8%
Cc1ccc2c(c1)sc1nc(=O)n(-c3cccc(Cl)c3)c(=O)n12 -11.5%
CC1=Nc2ccccc2/C1=C\c1nc(-c2ccc(C(F)(F)F)cc2)oc1O 54.7%
Cn1c(=O)c2ncn(CC(=O)Nc3cccc(-c4nc5ccccc5s4)c3)c2n(C)c1=O 4.93%
O=C(O)c1cc(O)c2c(c1)[C@@H]([C@H]1c3cc(C(=O)O)cc(O)c3C(=O)c3c(O[C@@H]4O[C@H](CO)[C@@H](O)[C@H](O)[C@H]4O)cccc31)c1cccc(OC3O[C@H](CO)[C@@H](O)[C@H](O)[C@H]3O)c1C2=O (some centres undefined) -99.8%
Cc1nc2c(oc3ccc(Cl)cc32)c(=O)[nH]1 34.1%
CC(=O)N1CCc2c(sc(NC(=O)CSc3ccc(C)cc3)c2-c2nc3ccccc3s2)C1 16.9%
COc1ccc(C2c3sc(=O)[nH]c3SCC2C(N)=O)cc1 (centres undefined) 46.6%
N#C/C(=C\c1ccc(-c2ccccc2C(=O)O)o1)c1nc2ccccc2[nH]1 -10%
CCOc1ccc(N=C(/C(C(=O)C(=O)N2CCOCC2)=C(/O)c2ccccc2)c2ccccc2)cc1 -18%
COCCNC(=O)C(c1ccco1)N(C(=O)Cn1nnc2ccccc21)c1ccccc1C (centres undefined) -6.87%
CCn1c(=O)c(-[n+]2ccccc2)c(O)c2ccccc21 9.8%
Cc1cccc2cc(/C=N/NC(=O)c3ccncc3)c(Cl)nc12 22.4%
C[C@H](NC(=O)c1nc[nH]c1C(=O)NCC(=O)OC(C)(C)C)c1ccccc1 -21.7%
Cc1cccc(-n2c(-c3ccc(Br)o3)n[nH]c2=S)c1 25.9%
C/C(N)=C(/C#N)C(=O)CSc1nnc(SCc2ccc(Cl)cc2)s1 0.586%
CCCCCCCC/C=C\CCCCCCCC(=O)NCCO -14.6%
O[C@H]1CN(CC2CCCCC2)[C@@H](c2ccc(Cl)cc2)C[C@@H]1n1cc(C2CC2)nn1 -27.3%
COc1ccccc1NC(=O)CN1CCN(CC(=O)Nc2ccccc2F)CC1 47.7%

Potency, active:
C/C(=N\NC(=O)c1ccc(-c2ccccc2)cc1)C1C(=O)c2ccccc2C1=O 31.6 µM
CC(=O)Nc1ccc(NC(=S)NC(=O)/C=C/c2ccco2)cc1 28.2 µM
CCc1ccc(NC2=CC(=O)C(=O)c3ccccc32)cc1 50.1 µM
COc1ccc(NC(=O)CN(C)C(=O)c2cc3c(s2)CCC3)cc1 3.16 µM
O=[N+]([O-])c1cc2ccccc2c(O)c1O 4.47 µM
FC(F)(F)c1cc(-c2ccco2)nc(NCc2ccco2)n1 50.1 µM
Oc1c(Br)cc(/C=N/Nc2ccc(Cl)nn2)cc1Br 22.4 µM
CCc1cc(=O)oc2cc(C)c(CN3CCCC(C)C3)c(O)c12 (centres undefined) 35.5 µM
Cc1cc(C(=O)Nc2sc3c(c2C#N)CCC3)no1 79.4 µM
O=C(/C=C/c1ccco1)Nc1ccccc1C(=O)Nc1cccc(C(=O)O)c1 17.8 µM
Cc1ccc(-c2nc(SCc3ccc(Br)cc3)n3[nH]c(=O)cc3n2)cc1 20 µM
CCCc1cc2c(-c3ccccc3)cc(=O)oc2cc1OCc1ccc(C(=O)O)o1 79.4 µM
O=C(Cn1cnc2scc(-c3ccccc3)c2c1=O)NCc1ccco1 22.4 µM
C[c-]1[c-](C)[c-](C)[c-](C)[c-]1C.[Fe].c1cc2nccc(N3CCCC3)[c-]2c1 (centres undefined) 20 µM
COc1ccccc1/C=C/C=c1\sc2nc(=O)c(Cc3ccccc3)nn2c1=O 20 µM
O=C(CN1C(=O)/C(=C/c2ccco2)SC1=S)Nc1ccc(C(=O)O)c(O)c1 3.55 µM
COc1cccc(N2CC(C(=O)Nc3nnc(SCC(=O)NCc4ccco4)s3)CC2=O)c1 (centres undefined) 31.6 µM
CCOC(=O)C1CCN(C(=O)Nc2ccc3nc(-c4ccco4)c(-c4ccco4)nc3c2)CC1 2.82 µM
O=C(CSc1ncccc1-c1nc2ccccc2[nH]1)NCc1ccco1 25.1 µM
C=CCn1c(SCc2nc3sc(C(=O)O)c(C)c3c(=O)[nH]2)nnc1-c1ccc(C(C)(C)C)cc1 7.08 µM
